Reference: patent US20260200947A1, “FUSED CYCLIC COMPOUNDS AND USE THEREOF” (Jacobio Pharmaceuticals Co., Ltd., priority 2022, published 2026)

Columns and labels:
[1] = tested on: AsPC-1 cells (K-Ras G12D)

C#Cc1c(F)ccc2cc(N)cc(-c3nc4c5c(nc(OC[C@@]67CCCN6C[C@H](F)C7)nc5c3F)N3C(C5CCCO5)CCOCC3N4C)c12 (stereo partly shown) [Compound 100]
IC50 [1]: 444 nM
IC50 (AGS cells (K-Ras G12D)): 50.1 nM
IC50 (SW620 cells (K-Ras G12V)): 119 nM

C#Cc1c(F)ccc2cc(N)cc(-c3nc4c5c(nc(OCC6(CN7CCOCC7)CC6)nc5c3F)N3CCCOC[C@H]3N4C)c12 [Compound 74]
IC50 (SW620 cells (K-Ras G12V)): 37.3 nM

C#Cc1c(F)ccc2cc(N)cc(-c3nc4c5c(nc(OCC6(CN(C)C)CC6(F)F)nc5c3F)N3CCCOC[C@H]3N4C)c12 (stereo partly shown) [Compound 4]
IC50 [1]: 151 nM
IC50 (AGS cells (K-Ras G12D)): 18.2 nM
IC50 (SW620 cells (K-Ras G12V)): 20.9 nM

CN1c2nc(-c3ccc(F)c4sc(N)c(C#N)c34)c(F)c3nc(OC[C@@]45CCCN4C[C@H](F)C5)nc(c23)N2CCCOC[C@@H]12 [Compound 75]
IC50 [1]: 806 nM
IC50 (AGS cells (K-Ras G12D)): 109 nM
IC50 (SW620 cells (K-Ras G12V)): 163 nM

[2H][C@]1(F)CCCCN2c3nc(OC[C@@]45CCCN4C[C@H](F)C5)nc4c(F)c(-c5cc(N)cc6ccc(F)c(C#C)c56)nc(c34)N(C)[C@@H]21 [Compound 95]
IC50 [1]: 1.87 nM
IC50 (AGS cells (K-Ras G12D)): 17.8 nM
IC50 (SW620 cells (K-Ras G12V)): 1 nM

C#Cc1c(F)ccc2cc(N)cc(-c3nc4c5c(nc(OCC6(CN7CC[C@@H](F)C7)CC6)nc5c3F)N3CCCOCC3N4C)c12 (stereo partly shown) [Compound 82]
IC50 [1]: 920 nM
IC50 (AGS cells (K-Ras G12D)): 370 nM
IC50 (SW620 cells (K-Ras G12V)): 128 nM
